This is one part of the list. The full chains were built here from the parent and the listed change. Values near 0.05 are background.
B1: TEV protease; numbered along this chain (parent)
chain: MGESLFKGPRDYNPISSSICHLTNESDGHTTSLYGIGFGPFIITNKHLFRRNNGTLVVQSLHGVFKVKDTTTLQQHLVDGRDMIIIRMPKDFPPFPQKLKFREPQREERICLVTTNFQTKSMSSMVSDTSCTFPSGDGIFWKHWIQTKDGQCGSPLVSTRDGFIVGIHSASNFTNTNNYFTSVPKNFMELLTNQEAQQWVSGWRLNADSVLWGGHKVFMVKPEEPFQPVKEATQL

Variants of: B1
Test: raw area under fraction-flipped curve 0-4 h after induction (AUC4h, not background-subtracted), DNA-recorder readout of cleavage of the substrate (dimensionless); higher = more cleavage of the substrate by the protease variant
Conditions: temperature: 34 °C; time window: 0-4 h after rhamnose induction
Procedure: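 In vivo DNA recorder in E. coli TOP10(DE3) ΔrhaA at 34 °C. Each TEVp single-site mutant (parent TEVp 0) is paired with a single-site variant of the 7-mer TEVs (canonical ENLYFQ|S). The substrate sits between flexible linkers in a Bxb1-sfGFP-TEVs-SsrA fusion, so cleavage stabilises Bxb1 and speeds flipping of a recombination array, read by NGS. The value is the raw area under the fraction-flipped curve over 0-4 h after rhamnose induction (AUC4h), with ≥20 reads per time point. It is not background-subtracted; inactive controls average about 0.047.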
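Note: Bxb1 expression induced with 0.2% (w/v) L-rhamnose at OD600 near 0.5, cultures sampled hourly, flipped fraction per protease–substrate barcode pair counted by paired-end Illumina sequencing.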

Variant | area with substrate ENLYFQA | area with substrate ENLYFQM | area with substrate ENLYFQS | area with substrate ENLYFQT | area with substrate ENLYFQV | area with substrate ENLYFQD | area with substrate ENLYFQG | area with substrate ENLYFQI | area with substrate ENLYFQK | area with substrate ENLYFQL | area with substrate ENLYFQN | area with substrate ENLYFQP | area with substrate ENLYFQR | area with substrate ENLYFQW | area with substrate ENLYFQY | area with substrate ENLYFQC | area with substrate ENLYFQH | area with substrate ENLYFQQ | area with substrate ENLYFQE | area with substrate ENLYFQF
MGESLFKGPRDYNPISSSICHLTNESDGHTTSLYGIGFGPFIITNKHLFRRNNGTLVVQSLHGVFKVKDTTTLQQHLVDGRDMIIIRMPKDFPPFPQKLKFREPQREEYICLVTTNFQTKSMSSMVSDTSCTFPSGDGIFWKHWIQTKDGQCGSPLVSTRDGFIVGIHSASNFTNTNNYFTSVPKNFMELLTNQEAQQWVSGWRLNADSVLWGGHKVFMVKPEEPFQPVKEATQL [R109Y] | 0.104 | 0.0798 | 0.0953 | 0.0455 | 0.0472 |  |  |  |  |  |  |  |  |  |  |  |  |  |  | 
MGESLFKGPRDYNPISSSICHLTNESDGHTTSLYGIGFGPFIITNKHLFRRNNGTLVVQSLHGVFKVKDTTTLQQHLVDGRDMIIIRMPKDFPPFPQKMKFREPQREERICLVTTNFQTKSMSSMVSDTSCTFPSGDGIFWKHWIQTKDGQCGSPLVSTRDGFIVGIHSASNFTNTNNYFTSVPKNFMELLTNQEAQQWVSGWRLNADSVLWGGHKVFMVKPEEPFQPVKEATQL [L99M] | 0.095 | 0.0711 | 0.0939 |  |  | 0.0673 | 0.0927 | 0.0486 | 0.0619 | 0.062 | 0.0894 | 0.051 | 0.0566 | 0.0697 | 0.0958 |  |  |  |  | 
MGESLFKGPRDYNPISSSICHLTNESDGHTTSLYGIGFGPFIITNKHLFRRNNGTLVVQSLHGVFKVKDTTTLQQHLVDGRDMIIIRMPKDFPPFPQKLKFREPQREERICLVTTNFQTKSMSSMVSDTSCTFPSGAGIFWKHWIQTKDGQCGSPLVSTRDGFIVGIHSASNFTNTNNYFTSVPKNFMELLTNQEAQQWVSGWRLNADSVLWGGHKVFMVKPEEPFQPVKEATQL [D137A] | 0.101 |  | 0.0923 |  |  | 0.0662 | 0.0844 | 0.057 |  |  | 0.0809 |  | 0.0675 | 0.0577 | 0.0693 | 0.105 |  |  |  | 
MGESLFKGPRDYNPISSSICHLTNESDGHTTSLYGIGFGPFIITNKHLFRRNNGTLVVQSLHGVFKVKDTTTLQQHLVDGRDMIIIRMPKDFPPFPQKLKFREPQREERICLVTTNFCTKSMSSMVSDTSCTFPSGDGIFWKHWIQTKDGQCGSPLVSTRDGFIVGIHSASNFTNTNNYFTSVPKNFMELLTNQEAQQWVSGWRLNADSVLWGGHKVFMVKPEEPFQPVKEATQL [Q118C] | 0.0308 |  | 0.0928 | 0.0539 |  |  | 0.0788 | 0.0697 |  | 0.0559 | 0.0825 |  | 0.0665 | 0.0784 |  |  |  |  |  | 
MGESLFKGPRDYNPISSSICHLTNESDGHTTSLYGIGFGPFIITNKHLFRRNNGTLVVQSLHGVFKVKDTTTLQQHLVDGRDMIIIRMPKDFPPFPQKLKFREPQREERICLVTTNFQTKSMSSMVSDTSCTFRSGDGIFWKHWIQTKDGQCGSPLVSTRDGFIVGIHSASNFTNTNNYFTSVPKNFMELLTNQEAQQWVSGWRLNADSVLWGGHKVFMVKPEEPFQPVKEATQL [P134R] | 0.0859 |  | 0.089 | 0.069 |  | 0.0355 | 0.0778 |  | 0.0583 | 0.0702 | 0.0654 |  | 0.0629 |  | 0.0961 | 0.0993 | 0.0336 |  |  | 
MGESLFKGPRDYNPISSSICHLTNESDGHTTSLYGIGFGPFIITNKHLFRRNNGTLVVQSLHGVFKVKDTTTLQQHLVDGRDMIIIRMPKDFPPFPQKLKFREPQREERICLVTTNFQTKSMSSMVSDTSCTFPSGDGIFWKHWIQTKDGQCGSPLVSTRDGFIVGIHSASNFTNTNNYFTSVPKNFMELLTNQEAQQWVSGWRLNADGVLWGGHKVFMVKPEEPFQPVKEATQL [S209G] | 0.0919 |  | 0.093 | 0.0516 | 0.0632 |  | 0.0873 | 0.0627 |  |  |  |  | 0.0614 |  | 0.0864 | 0.0793 | 0.0588 |  |  | 
MGESLFKGPRDYNPISSSICHLTNESDGHTTSLYGIGFGPFIITNKHLFRRNNGTLVVQSLHGVFKVKDTTTLQQHLVDGRDMIIIRMPKDFPPFPQKLKFREPQREERICLVTTNFQTKSMSSMVSDTSCTFPSGDGIFWKHWIQTKDGQCGSPLVSTRDGFIVGIHSASNFGNTNNYFTSVPKNFMELLTNQEAQQWVSGWRLNADSVLWGGHKVFMVKPEEPFQPVKEATQL [T174G] | 0.0996 | 0.0692 | 0.0845 | 0.0657 |  | 0.0263 | 0.0687 | 0.0584 | 0.0649 | 0.0652 |  | 0.0557 | 0.0703 | 0.0722 |  |  |  | 0.0675 |  | 
MGESLFKGPRDYNPISSSICHLTNESDGHTTSLYGIGFGPFIITNKHLFRRNNGTLVVQSLHGVFKVKDTTTLQQHLVDGRDMIIIRMPKDFPPFPQKLKFREPQREERICLVTTNFQTKSMSSMVSDTSCTFPSGDGIFWKHWIQTKDGQCGSPLVSTRDGFIVGIHSASNFTNTNNYFTSVPKNFMELLTNQEAQQWVSGWRLNADSVLWGGHKVFMVKPEEPFQWVKEATQL [P228W] | 0.124 |  | 0.0967 | 0.0681 | 0.0766 |  |  | 0.0624 |  | 0.06 | 0.0724 |  | 0.0687 |  |  |  | 0.0951 |  | 0.0725 | 
MGESLFKGPRDYNPISSSICHLTNESDGHTTSLYGIGFGPFIITNKHLFRRNNGTLVVQSLHGVFKVKDTTTLQQHLVDGRDMIIIRMPKDFPPFPQKLKFREPQREERICLVTTNFQTKSMSSMVSDTSCTFPSGDGIFWKHWIQTKDGQCGSPLVSTRDGFIVGIHSASNFTNTNNYFTSVPKNFMELLTNQEAQQWVSGWDLNADSVLWGGHKVFMVKPEEPFQPVKEATQL [R204D] | 0.131 |  | 0.0987 | 0.0551 |  | 0.0548 |  | 0.0654 | 0.0595 | 0.0604 | 0.084 | 0.0505 | 0.0588 | 0.066 | 0.072 | 0.114 | 0.0924 |  | 0.0621 | 0.0702

Source: the supplement of paper PMC12217912
